Laboratory results as given in a collection of fitness landscapes (doi:10.1126/science.1257360).
This is one part of the list.

B1: PhoQ; a variant is named by its letters at X, in order, P23837 (parent)
chain: MKKLLRLFFPLSLRVRFLLATAAVVLVLSLAYGMVALIGYSVSFDKTTFRLLRGESNLFYTLAKWENNKLHVELPENIDKQSPTMTLIYDENGQLLWAQRDVPWLMKMIQPDWLKSNGFHEIEADVNDTSLLLSGDHSIQQQLQEVREDDDDAEMTHSVAVNVYPATSRMPKLTIVVVDTIPVELKSSYMVWSWFIYVLSANLLLVIPLLWVAAWWSLRPIEALAKEVRELEEHNRELLNPATTRELTSLVRNLNRLLKSERERYDKYRTTLTDLTHSLKTPLXXLQXXLRSLRSEKMSVSDAEPVMLEQISRISQQIGYYLHRASMRGGTLLSRELHPVAPLLDNLTSALNKVYQRKGVNISLDISPEISFVGEQNDFVEVMGNVLDNACKYCLEFVEISARQTDEHLYIVVEDDGPGIPLSKREVIFDRGQRVDTLRPGQGVGLAVAREITEQYEGKIVAGESMLGGARMEVIFGRQHSAPKDE

Variants of: B1
Experiment: enrichment ratio after two sorts for PhoP signalling (ratio (wild type AVST 3.29)); higher = more functional
Settings: with PhoP (E. coli)

Variant	enrichment ratio
YKVD	≤ 0.25
RTPR	≤ 0.25
MEGK	≤ 0.25
EASK	≤ 0.25
KQCW	≤ 0.25
TVAV	6.64
QIQL	≤ 0.25
KTKS	≤ 0.25
MCDS	≤ 0.25
METI	6.64
LRAA	≤ 0.25
RPSK	≤ 0.25
SGTE	≤ 0.25
SPDC	≤ 0.25
GMFE	≤ 0.25
LFVC	≤ 0.25
WSAS	≤ 0.25
IHDK	≤ 0.25
SHGL	≤ 0.25
TRYN	≤ 0.25
LQIV	≤ 0.25
AIMM	35.5
RSIQ	≤ 0.25
HRTH	≤ 0.25

Variant	enrichment ratio
SRMP	≤ 0.25
RFWF	≤ 0.25
GMGC	≤ 0.25
RYRI	≤ 0.25
TNRD	≤ 0.25
RSVM	≤ 0.25
VNIG	≤ 0.25
FMAA	≤ 0.25
DFVW	≤ 0.25
HFNI	≤ 0.25
AIVF	2.34
LLDG	≤ 0.25
TDDN	≤ 0.25
QMPE	≤ 0.25
GQRW	≤ 0.25
LKRK	≤ 0.25
TNTV	10.2
FLIY	≤ 0.25
GDKQ	≤ 0.25
YYGW	≤ 0.25
QVHT	≤ 0.25
KQFI	≤ 0.25
DYNK	≤ 0.25
STLW	3.71

Variant	enrichment ratio
KPEY	≤ 0.25
ENEH	≤ 0.25
AWDA	≤ 0.25
PTCG	≤ 0.25
KSRF	≤ 0.25
IFDD	≤ 0.25
DFQG	≤ 0.25
FYKP	≤ 0.25
SFWK	≤ 0.25
GIFY	≤ 0.25
HFDV	≤ 0.25
LCHY	≤ 0.25
QWTC	≤ 0.25
LCGS	≤ 0.25
RSDK	≤ 0.25
ACQG	≤ 0.25
KNND	≤ 0.25
DEPG	≤ 0.25
NYNM	≤ 0.25
WVNW	≤ 0.25
LMPV	≤ 0.25
HGDT	≤ 0.25
YHCQ	≤ 0.25
HDDM	≤ 0.25

Variant	enrichment ratio
LEPQ	≤ 0.25
YYGL	≤ 0.25
FPFI	≤ 0.25
SCHM	≤ 0.25
NWIS	≤ 0.25
LFKY	≤ 0.25
SKCW	≤ 0.25
LYHM	≤ 0.25
EKPP	≤ 0.25
ENLN	≤ 0.25
GRYP	≤ 0.25
ILCF	≤ 0.25
QFEW	≤ 0.25
MYEP	≤ 0.25
YEHL	≤ 0.25
YCVL	≤ 0.25
WQHL	≤ 0.25
HNYK	≤ 0.25
KYLC	≤ 0.25
PWKL	≤ 0.25
NELG	2.34
YHWK	≤ 0.25
NWRP	≤ 0.25
KRQN	≤ 0.25

Variant	enrichment ratio
NGIN	≤ 0.25
DIAI	≤ 0.25
DSEC	≤ 0.25
HMKA	≤ 0.25
SQEM	≤ 0.25
HLMW	≤ 0.25
WYKG	≤ 0.25
GWKH	≤ 0.25
MHRM	≤ 0.25
SAGN	8.51
HKGT	≤ 0.25
ECAW	≤ 0.25
QLGW	≤ 0.25
QICT	≤ 0.25
GDKD	≤ 0.25
TRRS	≤ 0.25
GTPK	≤ 0.25
KPPR	≤ 0.25
KMPW	≤ 0.25
QSIG	≤ 0.25
IYSL	1.11
RNIW	≤ 0.25
KFAW	≤ 0.25
ITRN	≤ 0.25

Variant	enrichment ratio
EDSS	≤ 0.25
FAKE	≤ 0.25
RPSN	≤ 0.25
STVQ	12
QFMY	≤ 0.25
RTVI	≤ 0.25
HDAS	≤ 0.25
QSNP	≤ 0.25
FYVP	≤ 0.25
VSAF	0.399
LFKL	≤ 0.25
VPPC	≤ 0.25
AMMS	1.12
DRGN	≤ 0.25
WMHY	≤ 0.25
QARE	≤ 0.25
IQNH	≤ 0.25
TGLP	≤ 0.25
HEGT	≤ 0.25
IHRR	≤ 0.25
FRKE	≤ 0.25
FHVW	≤ 0.25
AGYL	4.28
KECV	≤ 0.25

Variant	enrichment ratio
ALHC	≤ 0.25
RLEH	≤ 0.25
KGFV	≤ 0.25
TDCD	≤ 0.25
HKWF	≤ 0.25
IWAS	≤ 0.25
NSYW	≤ 0.25
GYHK	≤ 0.25
GELE	≤ 0.25
PICE	≤ 0.25
LMIA	≤ 0.25
HSIF	≤ 0.25
QRFP	≤ 0.25
DGCF	≤ 0.25
RIWT	≤ 0.25
KVVE	≤ 0.25
PFYD	≤ 0.25
LIVT	≤ 0.25
TKCD	21.6
LATS	≤ 0.25
PADI	≤ 0.25
VIQW	≤ 0.25
DTAI	≤ 0.25
KDYF	≤ 0.25

Variant	enrichment ratio
SNMI	19.8
YQVL	≤ 0.25
IGCW	≤ 0.25
FIVQ	≤ 0.25
SCAS	11
HQFV	≤ 0.25
KTCV	≤ 0.25
KVPQ	≤ 0.25
KLSQ	≤ 0.25
SNIG	2.85
YWAF	≤ 0.25
VVGL	≤ 0.25
RIVW	≤ 0.25
NIFI	≤ 0.25
QKPF	≤ 0.25
HAFW	≤ 0.25
FFGY	≤ 0.25
QHYD	6.87
GLTA	≤ 0.25
FSCE	2.81
RMPM	1.21
DSHF	0.525
KQHF	≤ 0.25
KYPF	≤ 0.25

Variant	enrichment ratio
TSEY	≤ 0.25
NQMR	≤ 0.25
IDLQ	≤ 0.25
DMKY	≤ 0.25
RFNL	≤ 0.25
MAWI	8.24
QYIT	≤ 0.25
RIQT	≤ 0.25
HWRC	≤ 0.25
KSLK	≤ 0.25
VPYA	≤ 0.25
RYNV	≤ 0.25
DAAD	≤ 0.25
VIEQ	≤ 0.25
EDPQ	≤ 0.25
KHDC	≤ 0.25
NDPY	≤ 0.25
IRLH	≤ 0.25
PCIM	≤ 0.25
NMHY	≤ 0.25
WMWY	≤ 0.25
RGEC	≤ 0.25
FLKK	≤ 0.25
NRSW	≤ 0.25

Variant	enrichment ratio
RPTL	≤ 0.25
HLNW	≤ 0.25
QWTL	≤ 0.25
DHTM	≤ 0.25
HYAV	≤ 0.25
INVG	≤ 0.25
DYTF	≤ 0.25
RKIQ	≤ 0.25
WWIP	≤ 0.25
ACWL	≤ 0.25
TRLQ	6.73
PVNS	≤ 0.25
IHNI	≤ 0.25
GDGS	≤ 0.25
GCQP	≤ 0.25
FDWN	≤ 0.25
WPNG	≤ 0.25
AEDH	≤ 0.25
KSEY	≤ 0.25
YRVP	≤ 0.25
SITT	6.9
GQNG	≤ 0.25
WFPS	≤ 0.25
QSIE	≤ 0.25

Variant	enrichment ratio
ERNC	≤ 0.25
QHPK	≤ 0.25
WNCK	≤ 0.25
SMWN	≤ 0.25
FRHL	≤ 0.25
STEA	≤ 0.25
ISFV	≤ 0.25
KVTT	≤ 0.25
NTMD	≤ 0.25
ELSM	≤ 0.25
LDFA	≤ 0.25
QRDK	≤ 0.25
WFMP	≤ 0.25
RGMA	≤ 0.25
YAMY	≤ 0.25
RCNS	≤ 0.25
TGHS	2.49
MHFT	≤ 0.25
QDTN	≤ 0.25
ELYI	≤ 0.25
FKPM	≤ 0.25
IAWF	≤ 0.25
ELVG	≤ 0.25
RKTK	≤ 0.25

Variant	enrichment ratio
TLKH	≤ 0.25
IMKM	≤ 0.25
VDIG	≤ 0.25
WQNI	≤ 0.25
FMVN	≤ 0.25
FAMP	≤ 0.25
VVFN	≤ 0.25
PIEQ	≤ 0.25
RAIL	≤ 0.25
IYAI	≤ 0.25
WLFH	≤ 0.25
SFVC	≤ 0.25
NEIK	≤ 0.25
KRLR	≤ 0.25
MPHD	≤ 0.25
RYAV	≤ 0.25
WVKA	≤ 0.25
SRHF	≤ 0.25
GWGV	≤ 0.25
KGVR	≤ 0.25
KQLK	≤ 0.25
KQYC	≤ 0.25
CSAD	≤ 0.25
KAPS	≤ 0.25

Variant	enrichment ratio
ATAW	3.44
IWKM	≤ 0.25
SFNP	≤ 0.25
DWTH	≤ 0.25
WYES	≤ 0.25
MPEA	≤ 0.25
RLIQ	≤ 0.25
RFTA	≤ 0.25
TCCK	21.6
GRCY	≤ 0.25
NAPT	≤ 0.25
YYNG	≤ 0.25
FALT	4.43
GLMD	≤ 0.25
VPCI	≤ 0.25
PGCR	≤ 0.25
LCSH	≤ 0.25
FHFC	≤ 0.25
